# Data from PubChem BioAssay AID493208 (National Center for Advancing Translational Sciences (NCATS), 2011).
# Out of some 44,000 compounds screened, about 340 (0.77%) were called active. About 5% were inconclusive and are not listed. The call rests on the fitted dose curve; in most records, active means well fitted inhibition curve with a large enough effect; inconclusive means small, poorly fitted or top-dose-only effect; inactive means flat fitted curve, though single readings scatter. The list shows a part of the results.
# Assay: Acumen qHTS Assay for Inhibitors of the mTORC1 Signaling Pathway in MEF (Tsc2-/-, p53-/-) Cells: Sytravon;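 further: plate controls were DMSO for no effect and rapamycin for full effect; nearly all actives have a fitted effect of over 50% in size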
# Details: phospho-rpS6 immunofluorescence/PI, 24 h; series mostly up to 38.3 µM; activity change, negative = inhibition: at the top concentration
# Summary of the method: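 Tsc2-/-, p53-/- mouse embryonic fibroblasts (empty-vector line) exposed to compound 24 hrs at 37 C, fixed, immunostained for phospho-rpS6 and counterstained with propidium iodide. Acumen laser scanning gives % positive cells from Alexa 488/PI ratio, thresholded using 7.5 nM rapamycin; PI count gives viability.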
row,Compound,"activity change, negative = inhibition"
1,Cc1ccc(CNC(=O)c2sc3ncnc(N(C)C4CCCCC4)c3c2C)cc1,inactive: -5.05%
2,O=S(=O)(NCC(c1ccco1)N1CCOCC1)c1ccc(Cl)cc1 (centres undefined),inactive: -1.4%
3,Cc1ccccc1NC(=O)C1CCN(S(=O)(=O)c2ccccc2)CC1,inactive: 2.47%
4,O=C(Nc1ccccc1C(F)(F)F)Nc1c[nH]c(=O)[nH]c1=O,inactive: 2.42%
5,COc1ccc(Nc2c(-c3ccco3)nc3cccc(C)n23)cc1,inactive: -13.3%
6,Cc1ccc2c(C)c(C(=O)N3CCC(c4nc5ccccc5s4)CC3)oc2c1C,inactive: 2.15%
7,COc1cc(OC)c(OC)cc1CN1CCc2nc(N3CCN(c4ccccc4F)CC3)ncc2C1,inactive: 0%
8,COc1ccc(C2C=C(c3ccccc3)Nc3nc(NS(=O)(=O)c4ccc(C)cc4)nn32)cc1 (centres undefined),inactive: 0.0739%
9,Cc1c(C(=O)OC2CCCCC2)[nH]c2c1C(=O)CC(c1ccccc1)C2 (centres undefined),inactive: -17.6%
10,Cc1ccc(OCC(=O)N(Cc2ccc(Cl)cc2)CC2CCCO2)cc1C (centres undefined),inactive: -9.48%
11,Cc1cc(N2CCN(c3cccc(C(F)(F)F)c3)CC2)n2nc(-c3ccccc3C)nc2n1,inactive: -4.84%
12,CCCOc1ccc(C2C(=O)N(C3CCCCCC3)CC(=O)N2Cc2ccc(OC)cc2)cc1OC (centres undefined),inactive: 7.35%
13,CCN(CC)S(=O)(=O)c1ccc2c(c1)N(CC(=O)NCc1ccc(F)cc1)C(=O)CO2,inactive: -11.6%
14,CCC(C)NC(=O)CSc1nc2c(sc3ccccc32)c(=O)n1CCc1ccccc1 (centres undefined),inactive: -0.65%
15,O=S(=O)(c1cccc(C(F)(F)F)c1)N1CCC(Oc2ccc(-n3cnnn3)cc2)CC1,inactive: 1.44%
16,Cc1ccc2oc(=O)c3cnn(CC(=O)N4CCN(c5cccc(C(F)(F)F)c5)CC4)c3c2c1,inactive: 1.96%
17,Cc1cc(C)c2oc(-c3cc(NC(=O)Cc4ccccc4)ccc3Cl)nc2c1,inactive: -4.63%
18,COc1ccc(NC(=O)C2=C(C)Nc3c(C(=O)Nc4ccc(C)cc4)cnn3C2c2cc(OC)ccc2OC)cc1 (centres undefined),inactive: 1.4%
19,COc1cccc(NC(=O)Cn2c(=O)n(Cc3ccccc3)c(=O)c3c2c2cc(C)ccc2n3C)c1,inactive: -3.67%
20,CN(C)c1ccc(C2CC(c3c(O)n(C4CCCCC4)c(=O)[nH]c3=O)=Nc3ccccc3S2)cc1 (centres undefined),inactive: 6.08%
21,CCCN1CCc2nc(SCC(=O)Nc3ccc(C)c(Cl)c3)[nH]c(=O)c2C1,inactive: 5.35%
22,CCOc1ccc(C(=O)N2CCC(c3nc(-c4ccc(S(=O)(=O)N5CCCC5)cc4)no3)CC2)cc1,inactive: 3.36%
23,c1ccc(CSc2nnc(C3CCNCC3)o2)cc1,inactive: -0.4%
24,COC(=O)c1ccc(NC(=O)CCn2cccn2)cc1,inactive: 0.0221%

row,Compound,"activity change, negative = inhibition"
1,O=c1[nH]c2ccc(NCc3ccc(-c4ccccc4F)o3)cc2[nH]1,inactive: -20.1%
2,Cc1ccc(C(C)C)c(OCC(=O)Nc2cccc(-c3nc4ncccc4o3)c2)c1,inactive: 0.038%
3,CCOc1ccc(NC(=O)N(Cc2ccc(CC)cc2)Cc2cn[nH]c2-c2ccc(OC)cc2)cc1,inactive: 0.827%
4,COc1cccc(Oc2nc3c(c(=O)n(Cc4ccccc4Cl)c(=O)n3C)n2C)c1,inactive: 5.51%
5,CCOc1ccc(-c2cc3c(=O)n(Cc4nc(-c5ccc(OC)cc5OC)oc4C)ccn3n2)cc1Cl,inactive: 3.84%
6,COc1ccccc1NC(=O)c1nnn(-c2ccc(F)cc2)c1C,inactive: -0.473%
7,Cc1cc(F)ccc1NC(=O)C(C(C)C)N1Cc2ccccc2C1=O (centres undefined),inactive: 0.525%
8,COc1ccc(CNC(=O)c2ccc3c(c2)N(Cc2ccccc2)C(=O)c2ccccc2S3=O)cc1 (centres undefined),inactive: 0.296%
9,CCc1ccccc1OCCSc1nc(-c2cccs2)nc2cc(=O)[nH]n12,inactive: 2.4%
10,CC(=O)Nc1ccc(S(=O)(=O)NC2=NCN(C(C)C)CN2)cc1,inactive: 7.63%
11,COc1ccc(C(=O)N2CC(=O)Nc3ccc(C)cc3C2c2ccc(F)cc2)c(OC)c1 (centres undefined),inactive: 7.93%
12,CN(CC(=O)NCc1ccccc1Cl)S(=O)(=O)c1ccc2c(c1)c(=O)n(C)c(=O)n2C,inactive: -4.91%
13,Cc1ccc(Cl)cc1N1CCN(C(=O)Cc2c(C(=O)O)c(C)cn2C)CC1,inactive: -1.3%
14,Cc1sc2ncn(CC(=O)N3CCN(c4ccccc4F)CC3)c(=O)c2c1S(=O)(=O)N1CCN(c2ncccn2)CC1,inactive: -5.49%
15,O=c1c(-c2cc(-c3ccc(Cl)cc3)nc3c2COc2ccccc2-3)coc2ccccc12,inactive: 4.68%
16,CCC(=O)N1CCc2cc(Br)cc(S(=O)(=O)CCC(=O)NCCc3ccc(C)cc3)c21,inactive: -7.88%
17,COc1ccc(S(=O)(=O)Nc2cccc(-c3ccc(N4CCCCCC4)nn3)c2)cc1F,inactive: 0.265%
18,CCc1ccc(CNC(=O)c2cnc(N3CCCCC3)c3ccccc23)cc1,inactive: -1.86%
19,COc1ccc(CCNC(=O)C(=O)Nc2ccc(C)c(C)c2)cc1,inactive: -0.282%
20,O=C(CN1C(=O)CC(c2ccco2)Sc2ccccc21)Nc1cccc(C(F)(F)F)c1 (centres undefined),inactive: -10.4%
21,CC1CCN(S(=O)(=O)c2cc(C(=O)NCc3ccc(N(C)C)cc3)n(C)c2)CC1,inactive: -9.59%
22,CC(C)c1ccc(S(=O)(=O)c2cn(CC(=O)Nc3ccc(F)cc3)c3ccccc3c2=O)cc1,inactive: -3.7%
23,O=C(CSc1nc2c(c(=O)[nH]1)CCCC2)Nc1ccccc1C(F)(F)F,inactive: -0.145%
24,CCc1ccccc1NC(=O)Cn1c(=O)n(Cc2ccccc2)c(=O)c2c(C)c(C(=O)N(C)C)sc21,inactive: 1.76%

row,Compound,"activity change, negative = inhibition"
1,Cc1csc2nc(-c3cccc(NS(C)(=O)=O)c3)cn12,inactive: -1.1%
2,Cc1ccccc1CN1c2ccccc2-c2nc(SCC(=O)c3ccc(Cl)cc3)ncc2S1(=O)=O,inactive: 4.96%
3,COCCCNC(=O)CCCN1C(=O)CCn2nc(-c3cccn3C)cc21,inactive: -5.96%
4,Cc1ccc(-c2nc(C)c(CCNC(=O)C(=O)Nc3cc(C)ccc3C)s2)cc1,inactive: -2.74%
5,Cc1csc2nc(-c3ccc(NS(=O)(=O)c4cccc(F)c4)cc3)cn12,inactive: 11.3%
6,Cc1ccccc1CNC(=O)c1ccc(NC(=O)N2CCCCc3ccccc32)cc1,inactive: -0.819%
7,Cc1c(CN(C)C(=O)c2cc(-c3ccccc3)nc3ccc(Br)cc23)cnn1C,inactive: 4.83%
8,Cc1oc2ccc(NS(=O)(=O)c3ccc(F)cc3)cc2c1C(=O)O,inactive: 3.37%
9,CCCOc1ccc(C2=NC(c3ccncc3)=Nc3ccc(C)cc3N2)cc1,inactive: -10.5%
10,Cc1ccc(-c2n[nH]c3c2C(c2ccccc2Cl)N(c2ccc(C(=O)O)cc2)C3=O)cc1 (centres undefined),inactive: 0.434%
11,Cc1ccc(S(=O)(=O)c2c(Nc3ccc(C)c(C)c3)sc(C(=O)c3ccc4c(c3)OCO4)c2N)cc1,inactive: 0.203%
12,CSc1ncc(Cl)c(C(=O)Nc2c(C(=O)Nc3cccc(C)c3)oc3ccccc23)n1,inactive: 3.97%
13,Cc1ccccc1-c1noc(-c2ccc(N3CCC(C)CC3)c([N+](=O)[O-])c2)n1,inactive: 3.3%
14,O=C(CN1CCN(Cc2ccc(F)cc2Cl)C1=O)NCCc1ccc(Cl)cc1,inactive: 1.53%
15,CC(C)c1nc2ccc(C(=O)NCCCN3CCN(c4ccccc4)CC3)cc2o1,inactive: 0.187%
16,O=C1CN(C(=O)c2ccc(S(=O)(=O)N3CCCC3)cc2)C(c2ccccc2)c2cc(Cl)ccc2N1 (centres undefined),inactive: 4.8%
17,COc1ccc(OC)c(NC(=O)N2CC(C)Oc3ccc(C)cc32)c1 (centres undefined),inactive: -0.18%
18,Cc1ccc(C(=O)c2cn(CC(=O)NCc3ccccc3)c3nc(C)ccc3c2=O)cc1,inactive: 5.61%
19,Cc1ccc(O)c(Nc2nc3ccccc3c3nncn23)c1,inactive: -15.9%
20,Cc1cc(C)n(CC(=O)Nc2cc(F)ccc2F)c(=O)c1C#N,inactive: 4.1%
21,COc1ccc(Cl)cc1NC(=O)CSc1nnc2[nH]c(=O)cc(C)n12,inactive: 0.943%
22,CCOc1ccc(-c2nc(C(N)=O)c3c(n2)n(-c2ccc4c(c2)OCO4)c(=O)n3CC)cc1,inactive: -8.98%
23,CC1=C(C(N)=O)C(c2ccccc2F)n2nc(-c3ccc(Cl)cc3)nc2N1 (centres undefined),inactive: 1.97%
24,COC(=O)c1cc(S(=O)(=O)N2CCN(c3cc(Cl)ccc3C)CC2)c[nH]1,inactive: -0.983%

row,Compound,"activity change, negative = inhibition"
1,O=S(=O)(NCC(c1ccco1)N1CCOCC1)c1ccc(F)cc1 (centres undefined),inactive: 0.984%
2,Cc1cc(C)c2oc(C(=O)Nc3c(C(=O)c4ccccc4)oc4ccccc34)cc(=O)c2c1,inactive: 4.47%
3,Cc1ccc(CNC(=O)Cn2cc3c(n2)-c2c(oc(C(=O)N4CCOCC4)c2C)CC3)cc1,inactive: -5.86%
4,COc1ccccc1CNc1ncnc2c1c(-c1ccccc1)cn2-c1ccc(Br)cc1,inactive: 5.72%
5,COc1cc2c(=O)c(C(=O)c3ccc(F)cc3)cn(Cc3cccc(F)c3)c2cc1OC,inactive: -14.5%
6,Cc1ccc(C(=O)NCCC(C)C)cc1NC(=O)c1nsc2ccccc12,inactive: 1.46%
7,CCN(CC)c1ccc(NC(=O)Cn2c3ncccc3c(=O)n2-c2ccccc2)c(C)c1,inactive: -1.41%
8,CN(CCCNC(=O)Cn1ncc2c([nH]c3ccccc32)c1=O)Cc1ccccc1,inactive: 1.08%
9,Cc1ccccc1CNC(=O)C(=O)NCC(c1ccc2c(c1)OCO2)N1CCOCC1 (centres undefined),inactive: -13.2%
10,Cc1ccc2c(c1)-c1c(cnn1CC(=O)N1CCN(c3cc(C)ccc3C)CC1)CO2,inactive: -9.19%
11,Cc1ccccc1S(=O)(=O)Cc1ccc(C(=O)NCCc2ccccc2)o1,inactive: -20.2%
12,CC(C)N1CCc2c(sc(NC(=O)c3ccc(S(=O)(=O)N(C)C4CCCCC4)cc3)c2C(N)=O)C1,inactive: -0.0975%
13,O=C(NCc1ccc(Cl)cc1)c1ccc(CNS(=O)(=O)c2ccc(F)cc2)cc1,inactive: -5.05%
14,COCCc1nn2c(=O)cc(COC(=O)c3ccco3)nc2s1,inactive: -5.51%
15,CCC(Sc1nc2cc(OC)c(OC)cc2c(=O)n1Cc1ccc(OC)cc1)C(=O)NCCOC (centres undefined),inactive: -6.82%
16,CC(=O)c1ccc(NC(=O)c2cc(S(=O)(=O)N3CCOCC3)ccc2C)cc1,inactive: 1.52%
17,CC(C)(C)c1ccc(C(=O)Nc2ccc(OCc3cc(=O)n4ccsc4n3)cc2)cc1,inactive: -15%
18,COc1ccc(CCNC(=O)c2ccc(Cn3c(=O)c4ccccc4n(Cc4ccc(F)cc4Cl)c3=O)cc2)cc1OC,inactive: -4.31%
19,Cc1cc(N2CCN(c3ccccc3)CC2)n2cnnc2n1,inactive: -9.55%
20,Cc1nc(-c2ccc(F)cc2)sc1CCNC(=O)c1ccc(OC(C)C)cc1,inactive: -3%
21,CCN1CCN(C(=O)c2ccc3c(c2)N(Cc2ccccc2)C(=O)c2ccccc2S3(=O)=O)CC1,inactive: -6.7%
22,CCOc1ccc(-c2cn3c(n2)sc2cc(C(=O)N4CCCC(C)C4)ccc23)cc1 (centres undefined),inactive: 1.34%
